According to the supplement of paper PMC6135742:
Several values for one entry are separate records, joined by “and”; a condition that tells them apart may be missing. Equal entries are not always repeated. Structures can show the parent of a compound that is named as a salt. ± gives the standard deviation of the averaged measurements. Over roughly 2,600 compounds, “MBP+ mature oligodendrocyte number relative to DMSO vehicle control” has its median near -0.34; the highest 2% begin near 13. The list shows a part of the results.

System: jimpy (Plp1 jimpy) mouse iPSC-derived oligodendrocyte progenitor cells
Experiment: MBP+ mature oligodendrocyte number relative to DMSO vehicle control (SDs above negative control mean); higher = more surviving jimpy oligodendrocytes (rescue)
Details: 10 µM; 3 days
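Note: 10 µM single dose with 3-day oligodendrocyte differentiation.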

Structure (SMILES)	MBP+ mature oligodendrocyte number
NC(=O)C(c1ccccc1)(c1ccccc1)[C@@H]1CCN(CCc2ccc3c(c2)CCO3)C1 [Darifenacin HBr]	-5.37
CCCNCC(O)COc1ccccc1C(=O)CCc1ccccc1 (configuration not stated) [Propafenone HCl]	6.27
CCCNCC(O)COc1ccccc1C(=O)CCc1ccccc1 (configuration not stated) [Propafenone hydrochloride]	0.578
O=C1c2ccc(Nc3ccc(F)cc3F)cc2CCc2ccc(OC[C@H](O)CO)cc21 [Skepinone-L]	2.6
COc1cc(/C=C(\C#N)C(=O)Nc2nnc(C(F)(F)F)s2)ccc1OCc1ccc(C(F)(F)F)cc1C(F)(F)F	0.182
COc1ccccc1OCC(O)CN1CCN(CC(=O)Nc2c(C)cccc2C)CC1 (configuration not stated) [Ranolazine 2HCl]	4.56
COc1ccccc1OCC(O)CN1CCN(CC(=O)Nc2c(C)cccc2C)CC1 (configuration not stated) [Ranolazine]	6.01
COc1ccccc1OCC(O)CN1CCN(CC(=O)Nc2c(C)cccc2C)CC1 (configuration not stated) [Ranolazine dihydrochloride]	0.86
O=[N+]([O-])c1cccc2cn[nH]c12 [7-Nitroindazole]	-0.872
COc1cc([C@@H]2c3cc4c(cc3[C@@H](O[C@@H]3O[C@@H]5CO[C@@H](C)O[C@H]5[C@H](O)[C@H]3O)[C@H]3COC(=O)[C@H]23)OCO4)cc(OC)c1O [Etoposide]	-5.58 ± 1.6
OC[C@H]1O[C@@H](Oc2cc(O)cc(/C=C/c3ccc(O)cc3)c2)[C@H](O)[C@@H](O)[C@@H]1O [Polydatin]	-1.45
COc1ccc(C2CNC(=O)C2)cc1OC1CCCC1 (configuration not stated) [Rolipram]	1.2 ± 1.8
CC(/C=C/c1cccc(Oc2ccc(F)cc2)c1)N(O)C(N)=O (configuration not stated)	0.235
O=c1c(O)c(-c2ccc(O)cc2O)oc2cc(O)cc(O)c12 [Morin]	0.657
O=c1c(O)c(-c2ccc(O)cc2O)oc2cc(O)cc(O)c12 [Morin Hydrate]	3.08
CC(=O)Nc1nc(C)c(-c2ccc(Cl)c(S(=O)(=O)NCCO)c2)s1	-4.97
O=S(=O)(O)c1cc(O)ccc1O [Ethamsylate]	-0.692
CC(C)C[C@H](NP(=O)(O)O[C@H]1O[C@H](C)[C@@H](O)[C@H](O)[C@@H]1O)C(=O)N[C@@H](Cc1c[nH]c2ccccc12)C(=O)O [Phosphoramidon disodium]	-0.211
O=C1C[C@@H](c2ccc(O)cc2)Oc2cc(O)cc(O)c21 [Naringenin]	3.64
CCC(=O)O[C@]1(C(=O)CCl)[C@@H](C)C[C@H]2[C@@H]3CCC4=CC(=O)C=C[C@]4(C)[C@@]3(F)[C@@H](O)C[C@@]21C [Clobetasol propionate]	12.8
CCOC(=O)[C@H](CCc1ccccc1)N[C@H]1CS[C@H](c2cccs2)CN(CC(=O)O)C1=O [Temocapril HCl]	1.57
COc1ccc(F)c(F)c1C(=O)c1cnc(NC2CCN(S(C)(=O)=O)CC2)nc1N	< -6.01
CCCCC(F)(F)[C@@]1(O)CC[C@H]2[C@@H](CC(=O)[C@@H]2CCCCCCC(=O)O)O1 [Lubiprostone]	25.2

Structure (SMILES)	MBP+ mature oligodendrocyte number
CCOCC(O)COc1ccc(NC(=O)CC[S+](C)C)cc1 (configuration not stated) [Suplatast Tosylate]	-0.0169
CN1CCN(CCOc2cc(OC3CCOCC3)c3c(Nc4c(Cl)ccc5c4OCO5)ncnc3c2)CC1 [Saracatinib (AZD0530)]	-6.44
Nc1ccc(S(=O)(=O)Nc2ccnn2-c2ccccc2)cc1 [Sulfaphenazole]	1.15
CCC(=O)c1c(O)cc(O)cc1O [Flopropione]	3.45
C=CC(=O)Nc1ccc2ncnc(Nc3cccc(Br)c3)c2c1	-5.68
CC1Cc2ccccc2N1NC(=O)c1ccc(Cl)c(S(N)(=O)=O)c1 (configuration not stated) [Indapamide]	3.04
CC(C)(C)[C@]1(O)CCN2C[C@H]3c4ccccc4CCc4cccc(c43)[C@@H]2C1 [(+)-Butaclamol hydrochloride]	0.274
CC(C)(C)[C@]1(O)CCN2C[C@H]3c4ccccc4CCc4cccc(c43)[C@@H]2C1 (racemic) [(±)-Butaclamol hydrochloride]	3.69
Nc1nc2[nH]c(=O)cnc2c(=O)[nH]1 [Isoxanthopterin]	0.265
CO/N=C(\C(=O)N[C@@H]1C(=O)N2C(C(=O)O)=C(Cn3ccc(=N)n3CCO)CS[C@H]12)c1csc(N)n1 [Cefoselis Sulfate]	0.982
Nc1ncnc2c1nc(Sc1ccc(Cl)cc1)n2C1OC2COP(=O)(O)O[C@@H]2[C@@H]1O (some centres not stated) [8-(4-Chlorophenylthio)-cAMP sodium]	-1.26
CCCCCCCCCCCCCCCC(=O)O[C@@H]1[C@@H](O)[C@@H](O)[C@@H]([C@H](NC(=O)[C@@H]2C[C@@H](CCC)CN2C)[C@H](C)Cl)O[C@@H]1SC [Clindamycin palmitate HCl]	-1.12
O=C(O)C1=CCCNC1 [Guvacine hydrochloride]	0.502
CC(=O)Nc1ncc([N+](=O)[O-])s1 [Nithiamide]	-0.185
O=C(NOCC1CC1)c1cc(Br)c(F)c(F)c1Nc1ccc(I)cc1Cl	-3.71
CCn1ccnc1CC1COc2ccccc2O1 (configuration not stated) [Imiloxan hydrochloride]	0.461
COc1ccc(S(=O)(=O)N(C(C)=O)c2ccccc2/C=C/c2cc[n+]([O-])cc2)cc1	-4.97
O=C1CC2(CCCC2)CC(=O)N1CCCCN1CCN(c2ncccn2)CC1 [Buspirone HCl]	3.62
O=C1CC2(CCCC2)CC(=O)N1CCCCN1CCN(c2ncccn2)CC1 [Buspirone hydrochloride]	-0.119
CC[C@H]1OC(=O)[C@H](C)[C@@H](O[C@H]2C[C@@](C)(OC)[C@@H](O)[C@H](C)O2)[C@H](C)[C@@H](O[C@@H]2O[C@H](C)C[C@H](N(C)C)[C@H]2O)[C@](C)(O)C[C@@H](C)[C@@H]2N[C@@H](COCCOC)O[C@H]([C@H]2C)[C@]1(C)O [Dirithromycin]	-3.48
Cc1cc(C)c(/C=C2\C(=O)Nc3ccccc32)[nH]1 [Semaxanib (SU5416)]	2.33
Cc1cc(C)c(/C=C2\C(=O)Nc3ccccc32)[nH]1	-1.1
O=C(NOC[C@H](O)CO)c1ccc(F)c(F)c1Nc1ccc(I)cc1F	-2.16 and -2.95

Structure (SMILES)	MBP+ mature oligodendrocyte number
CC(C)c1cc(-c2ccc(F)c3ccccc23)nc(N)n1	6.85
c1ccc(C(NCc2cccnc2)(c2ccccc2)c2ccccc2)cc1	1.91
Cc1cccc(C#Cc2ccccc2)n1 [6-Methyl-2-(phenylethynyl)pyridine hydrochloride]	-0.715
N[C@H](C(=O)O)c1cc(O)cc(O)c1 [(S)-3,5-Dihydroxyphenylglycine]	4.16
O=c1cc[nH]c(=S)[nH]1 [2-Thiouracil]	1.22
CC(C)(C)c1ccc(-c2nc3ccccc3[nH]2)cc1	10.9
O=C(/C=C/c1ccc(CN(CCO)CCc2c[nH]c3ccccc23)cc1)NO [LAQ824 (Dacinostat)]	< -6.7
C=CCN1CCc2c(cc(O)c(O)c2Br)[C@@H](c2ccccc2)C1 [R(+)-6-Bromo-APB hydrobromide]	-2.95
Oc1ccc(OCc2ccccc2)cc1 [Monobenzone]	-2.09
CCCn1c(=O)c2c(ncn2C)n(CCC)c1=O [1,3-Dipropyl-7-methylxanthine]	0.502
C[C@H]1C[C@H]2[C@@H]3CCC4=CC(=O)C=C[C@]4(C)[C@@]3(F)[C@@H](O)C[C@]2(C)[C@@]1(O)C(=O)CO [Betamethasone]	6.53 ± 6.4
CNC(=O)[C@H](Cc1c[nH]c2ccccc12)NC(=O)[C@@H](CC(=O)NO)CC(C)C [Ilomastat (GM6001, Galardin)]	-0.1
Cc1ccc(Cl)c(Nc2ccccc2C(=O)O)c1Cl [Meclofenamic acid sodium]	0.147
O=C(NCCO[N+](=O)[O-])c1cccnc1 [Nicorandil]	1.06
CC(C)(Cc1ccc2ccccc2c1)NC[C@@H](O)COc1cccc(Cl)c1C#N	< -6.01
O=C(c1cn(Cc2cncn2Cc2ccc(Br)cc2)cc1-c1cccc2ccccc12)N1CCOCC1	-2.66
CCN1CCN(C(=O)N[C@@H](C(=O)N[C@@H]2C(=O)N3C(C(=O)O)=C(CSc4nnnn4C)CS[C@H]23)c2ccc(O)cc2)C(=O)C1=O [Cefoperazone]	-4.88
CN(C)CCOc1ccc(/C(=C(/CCCl)c2ccccc2)c2ccccc2)cc1 [Toremifene Citrate]	< -5.15
Cc1cc(Nc2ncnc3ccc(-c4ccc(CNCCS(C)(=O)=O)o4)cc23)ccc1Oc1ccn2ncnc2c1 [HER2-Inhibitor-1]	< -6.01
CC1=Nc2ccc(Cl)cc2S(=O)(=O)N1 [Diazoxide]	0.973
O=c1c(-c2ccc(O)cc2)coc2c([C@@H]3O[C@H](CO)[C@@H](O)[C@H](O)[C@H]3O)c(O)ccc12 [Puerarin]	-0.836
CCn1nc(C(=O)O)c(=O)c2cc3c(cc21)OCO3 [Cinoxacin]	-0.551
COCCOC(=O)C1=C(C)NC(C)=C(C(=O)OC/C=C/c2ccccc2)C1c1cccc([N+](=O)[O-])c1 (configuration not stated) [Cilnidipine]	11.4 ± 2.9

Structure (SMILES)	MBP+ mature oligodendrocyte number
CCOc1nc2cccc(C(=O)O)c2n1Cc1ccc(-c2ccccc2-c2noc(=O)[nH]2)cc1 [Azilsartan]	0.58
Cc1cc([C@@H](C)Nc2ccccc2C(=O)O)c2nc(N3CCOCC3)cc(=O)n2c1	-4.25
CN1CCN(c2nc3cc(C(F)(F)F)ccc3n3cccc23)CC1	-3.32
COc1cc2nccc(Oc3ccc(NC(=O)C4(C(=O)Nc5ccc(F)cc5)CC4)cc3)c2cc1OC	-6.09
O=C(O)/C=C/c1ccc(Cn2ccnc2)cc1 [Ozagrel HCl]	-2.45
O=C(O)/C=C/c1ccc(Cn2ccnc2)cc1 [Ozagrel]	-1.62
CCCc1nc(C)c2c(=O)nc(-c3cc(S(=O)(=O)N4CCN(CC)CC4)ccc3OCC)[nH]n12 [Vardenafil HCl Trihydrate]	8.56
CNC(=O)c1cc(COc2nnc(Nc3ccc(Cl)cc3)c3ccoc23)ccn1 [Telatinib]	5.93
OC1(c2ccc(Cl)c(C(F)(F)F)c2)CCN(CCCC(c2ccc(F)cc2)c2ccc(F)cc2)CC1 [Penfluridol]	-6.18
C[C@@H]1C[C@H]2[C@@H]3CCC4=CC(=O)C=C[C@]4(C)[C@@]3(F)[C@@H](O)C[C@]2(C)[C@@]1(O)C(=O)CO [Dexamethasone (DHAP)]	5.96
Cc1cnc(NC(=O)C2=C(O)c3ccccc3S(=O)(=O)N2C)s1 [Meloxicam sodium]	-0.519
Cc1cnc(NC(=O)C2=C(O)c3ccccc3S(=O)(=O)N2C)s1 [Meloxicam]	-0.107
CC(C)NCC(O)COc1ccc(CC(N)=O)cc1 (racemic) [(±)-Atenolol]	-0.315
O=C(O)CCCc1ccccc1 [Sodium Phenylbutyrate]	-0.607
CC1(C)O[C@@H]2C[C@H]3[C@@H]4CCC5=CC(=O)C=C[C@]5(C)[C@@]4(F)[C@@H](O)C[C@]3(C)[C@]2(C(=O)CO)O1 [Triamcinolone Acetonide]	5.92
N=C(N)SCCc1c[nH]cn1 [Imetit dihydrobromide]	-0.363
COc1ccccc1S(=O)(=O)Nc1ccc2c(c1)CN(C)C(=O)N2	< -6.7
Nc1nc(=O)c(Br)c(-c2ccccc2)[nH]1 [Bropirimine]	-1.03
Cc1nnc(NS(=O)(=O)c2ccc(N)cc2)s1 [Sulfamethizole]	2.95
CN(C)c1ccc(/C=C2/C(=O)Nc3ccccc32)cc1	0.789
COc1cc(NS(C)(=O)=O)ccc1Nc1c2ccccc2nc2ccccc12 [Amsacrine hydrochloride]	< -3.34
FC(F)c1nc2ccccc2n1-c1nc(N2CCOCC2)nc(N2CCOCC2)n1	< -6.7
CCN1CCN(c2cc3c(cc2F)c(=O)c(C(=O)O)cn3C2CC2)CC1 [Enrofloxacin]	0.898
